The source of these data is the supplement of paper PMC4604168 (melanoma cell lines).

The list shows a part of the results. Single values are uncertain, as repeats are few or missing.
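Further: cell number obtained by counting DAPI-stained nuclei in high-throughput microscope images with image analysis software, screen run in 1,536-well plates.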

The test relates to COLO829. Kind of test: cell count relative to DMSO control; melanoma cells; higher = more viable cells. The conditions noted are these: library dose: low library concentration; 72 h.
`Nc1ncn([C@H]2C[C@H](O)[C@@H](CO)O2)c(=O)n1` [decitabine] + CC(C)CCN1c2nc(Nc3cc(F)c(O)c(F)c3)ncc2N(C)C(=O)C1C [BID1870] (first compound 0.1 µM, partner dose 0.2 µM) had a cell count of 85.7%.

Regarding `Nc1ccn([C@@H]2O[C@H](CO)[C@@H](O)C2(F)F)c(=O)n1` [gemcitabine] + CC(C)CCN1c2nc(Nc3cc(F)c(O)c(F)c3)ncc2N(C)C(=O)C1C [BID1870] (first compound 0.0004 µM, partner dose 0.2 µM), the cell count is 108%.

`Nc1ncn([C@H]2C[C@H](O)[C@@H](CO)O2)c(=O)n1` [decitabine] + CC1(C)NC(=O)N(c2ccc([N+](=O)[O-])c(C(F)(F)F)c2)C1=O [nilutamide] (first compound 0.1 µM, partner dose 1 µM): the cell count was determined as 82.3%.

On to `CC(=O)O[C@@]12CO[C@@H]1C[C@H](O)[C@@]1(C)C(=O)[C@H](O)C3=C(C)[C@@H](OC(=O)[C@H](O)[C@@H](NC(=O)OC(C)(C)C)c4ccccc4)C[C@@](O)([C@@H](OC(=O)c4ccccc4)[C@H]21)C3(C)C` [Docetaxel] + CCc1ccc(CCOc2ccc(CC3SC(=O)NC3=O)cc2)nc1 [pioglitazone] (first compound 0.0001 µM, partner dose 2 µM), for which the cell count turned out to be 52.9%.

For `Nc1ncn([C@H]2C[C@H](O)[C@@H](CO)O2)c(=O)n1` [decitabine] + Cc1cc(N2CCOCC2)cc2[nH]c(-c3c(NC[C@@H](O)c4cccc(Cl)c4)cc[nH]c3=O)nc12 [BMS536924] (first compound 0.1 µM, partner dose 0.2 µM), the cell count turned out to be 96.7%.

In the case of `Nc1ncn([C@H]2C[C@H](O)[C@@H](CO)O2)c(=O)n1` [decitabine] + O=S(=O)(c1ccccc1)N(CC(F)(F)F)c1ccc(C(O)(C(F)(F)F)C(F)(F)F)cc1 [T0901317] (first compound 0.1 µM, partner dose 1.4 µM), the cell count came out at 88.5%.

As to `Nc1ncn([C@H]2C[C@H](O)[C@@H](CO)O2)c(=O)n1` [decitabine] + COc1cc(N2CCC(N3CCN(C)CC3)CC2)ccc1Nc1ncc(Cl)c(Nc2ccccc2S(=O)(=O)C(C)C)n1 [NVP-TAE684] (first compound 0.1 µM, partner dose 0.08 µM), the cell count turned out to be 91%.

`CC(=O)c1c(C)c2cnc(Nc3ccc(N4CCNCC4)cn3)nc2n(C2CCCC2)c1=O` [palbociclib] + Oc1nc(-c2ccc(C(F)(F)F)cc2)nc2c1CSCC2 [XAV939] (first compound 0.04 µM, partner dose 2 µM) returned a cell count of 86.4%.

For `Nc1ccn([C@@H]2O[C@H](CO)[C@@H](O)C2(F)F)c(=O)n1` [gemcitabine] + O=c1cc(-c2cccc3c2Sc2ccccc2S3)oc(N2CCOCC2)c1 [KU55933] (first compound 0.0004 µM, partner dose 1 µM), the cell count amounted to 62.8%.

For the molecule `Nc1ncn([C@H]2C[C@H](O)[C@@H](CO)O2)c(=O)n1` [decitabine] + N#Cc1c(O)c2c(-c3ccc(-c4ccccc4O)cc3)csc2[nH]c1=O [A769662] (first compound 0.1 µM, partner dose 2 µM), the cell count turned out to be 63%.

With `Nc1nc(F)nc2c1ncn2[C@@H]1O[C@H](CO)[C@@H](O)[C@@H]1O` [fludarabine] + CN(C)S(=O)(=O)c1ccc2c(c1)/C(=C/c1cc3c([nH]1)CCCC3)C(=O)N2 [SU6656] (first compound 0.2 µM, partner dose 0.4 µM), the cell count was 85.3%.

In turn, `Nc1ncn([C@H]2C[C@H](O)[C@@H](CO)O2)c(=O)n1` [decitabine] + CCc1ccc(CCOc2ccc(CC3SC(=O)NC3=O)cc2)nc1 [pioglitazone] (first compound 0.1 µM, partner dose 2 µM) had a cell count of 69.5%.

For `CC(=O)c1c(C)c2cnc(Nc3ccc(N4CCNCC4)cn3)nc2n(C2CCCC2)c1=O` [palbociclib] + CN(NC(=O)CC(=O)NN(C)C(=S)c1ccccc1)C(=S)c1ccccc1 [STA4783] (first compound 0.04 µM, partner dose 0.006 µM), the cell count amounted to 66.1%.

The molecule `CC(=O)O[C@@]12CO[C@@H]1C[C@H](O)[C@@]1(C)C(=O)[C@H](O)C3=C(C)[C@@H](OC(=O)[C@H](O)[C@@H](NC(=O)OC(C)(C)C)c4ccccc4)C[C@@](O)([C@@H](OC(=O)c4ccccc4)[C@H]21)C3(C)C` [Docetaxel] + CS(=O)(=O)CCNCc1ccc(-c2ccc3ncnc(Nc4ccc(OCc5cccc(F)c5)c(Cl)c4)c3c2)o1 [lapatinib] (first compound 0.0001 µM, partner dose 0.8 µM) yielded a cell count of 63%.

In turn, `CC(=O)O[C@@]12CO[C@@H]1C[C@H](O)[C@@]1(C)C(=O)[C@H](O)C3=C(C)[C@@H](OC(=O)[C@H](O)[C@@H](NC(=O)OC(C)(C)C)c4ccccc4)C[C@@](O)([C@@H](OC(=O)c4ccccc4)[C@H]21)C3(C)C` [Docetaxel] + c1cc(-c2cnn3cc(-c4ccc(OCCN5CCCCC5)cc4)cnc23)ccn1 [Dorsomorphin] (first compound 0.0001 µM, partner dose 0.4 µM) showed a cell count of 43.7%.

On to `CO[C@H]1C[C@@H]2CC[C@@H](C)[C@@](O)(O2)C(=O)C(=O)N2CCCC[C@H]2C(=O)O[C@H]([C@H](C)C[C@@H]2CC[C@@H](OCCO)[C@H](OC)C2)CC(=O)[C@H](C)/C=C(\C)[C@@H](O)[C@@H](OC)C(=O)[C@H](C)C[C@H](C)/C=C/C=C/C=C/1C` [everolimus] + COc1cc2ncnc(Nc3ccc(Oc4ccccc4)cc3)c2cc1OC [SrcI1] (first compound 0.02 µM, partner dose 2 µM), for which the cell count stood at 99.9%.

With `Nc1ncn([C@H]2C[C@H](O)[C@@H](CO)O2)c(=O)n1` [decitabine] + COC(=O)c1sccc1S(=O)(=O)Nc1ccc(Nc2ccccc2)cc1OC [GSK0660] (first compound 0.1 µM, partner dose 1 µM), the cell count amounted to 62.5%.

`Nc1nc(F)nc2c1ncn2[C@@H]1O[C@H](CO)[C@@H](O)[C@@H]1O` [fludarabine] + CCN(CC)CCCCNc1ncc2cc(-c3cc(OC)cc(OC)c3)c(NC(=O)NC(C)(C)C)nc2n1 [PD173074] (first compound 0.2 µM, partner dose 0.1 µM) gave a cell count of 119%.

The molecule `Nc1ccn([C@@H]2O[C@H](CO)[C@@H](O)C2(F)F)c(=O)n1` [gemcitabine] + Oc1nc(-c2ccc(C(F)(F)F)cc2)nc2c1CSCC2 [XAV939] (first compound 0.0004 µM, partner dose 2 µM) displayed a cell count of 81.5%.

As to `Nc1ccn([C@@H]2O[C@H](CO)[C@@H](O)C2(F)F)c(=O)n1` [gemcitabine] + COc1ccc2c(c1)CCC1C2CCC2(C)C(NCCCCCCN3C(=O)C=CC3=O)CCC12 [U73122] (first compound 0.0004 µM, partner dose 0.4 µM), the cell count came out at 66.8%.

The molecule `CC(=O)c1c(C)c2cnc(Nc3ccc(N4CCNCC4)cn3)nc2n(C2CCCC2)c1=O` [palbociclib] + O=c1cc(-c2cccc3c2Sc2ccccc2S3)oc(N2CCOCC2)c1 [KU55933] (first compound 0.04 µM, partner dose 1 µM) gave a cell count of 102%.

For the molecule `CC(=O)c1c(C)c2cnc(Nc3ccc(N4CCNCC4)cn3)nc2n(C2CCCC2)c1=O` [palbociclib] + Cc1cc([N+](=O)[O-])ccc1NS(=O)(=O)c1cc(Cl)ccc1Cl [FH535] (first compound 0.04 µM, partner dose 1 µM), the cell count stood at 91%.

Molecule `Nc1ncn([C@H]2C[C@H](O)[C@@H](CO)O2)c(=O)n1` [decitabine] + CCCCCCCCCCCC1=C(O)C(=O)C=C(O)C1=O [Embelin] (first compound 0.1 µM, partner dose 1.2 µM) showed a cell count of 91.9%.

`Nc1ccn([C@@H]2O[C@H](CO)[C@@H](O)C2(F)F)c(=O)n1` [gemcitabine] + CCCCCCCCCCCC1=C(O)C(=O)C=C(O)C1=O [Embelin] (first compound 0.0004 µM, partner dose 1.2 µM) registered a cell count of 85.7%.

In turn, `Nc1nc(F)nc2c1ncn2[C@@H]1O[C@H](CO)[C@@H](O)[C@@H]1O` [fludarabine] + CC(C)CCN1c2nc(Nc3cc(F)c(O)c(F)c3)ncc2N(C)C(=O)C1C [BID1870] (first compound 0.2 µM, partner dose 0.2 µM) returned a cell count of 96.7%.

Molecule `CO[C@H]1C[C@@H]2CC[C@@H](C)[C@@](O)(O2)C(=O)C(=O)N2CCCC[C@H]2C(=O)O[C@H]([C@H](C)C[C@@H]2CC[C@@H](OCCO)[C@H](OC)C2)CC(=O)[C@H](C)/C=C(\C)[C@@H](O)[C@@H](OC)C(=O)[C@H](C)C[C@H](C)/C=C/C=C/C=C/1C` [everolimus] + COc1ccc(-c2ccc3c(N4CCOCC4)nc(N4C[C@@H](C)O[C@@H](C)C4)nc3n2)cc1CO [KU0063794] (first compound 0.02 µM, partner dose 0.02 µM) gave a cell count of 91.7%.

`CC(=O)O[C@@]12CO[C@@H]1C[C@H](O)[C@@]1(C)C(=O)[C@H](O)C3=C(C)[C@@H](OC(=O)[C@H](O)[C@@H](NC(=O)OC(C)(C)C)c4ccccc4)C[C@@](O)([C@@H](OC(=O)c4ccccc4)[C@H]21)C3(C)C` [Docetaxel] + CCN(CC)CCCCNc1ncc2cc(-c3cc(OC)cc(OC)c3)c(NC(=O)NC(C)(C)C)nc2n1 [PD173074] (first compound 0.0001 µM, partner dose 0.1 µM) came in with a cell count of 74.2%.
